# Test results from PubChem BioAssay AID485344 (National Center for Advancing Translational Sciences (NCATS), 2010).
# About 6,900 (2%) of roughly 340,000 compounds were called active. No stated cut-off is given here; in the data, active means inhibition above about 30%; inactive means below that, where a call was filed. The entries are a selection whose mix differs from that of the whole data set. Where no call is shown, the source filed none.
# Biological target: D(2) dopamine receptor (Homo sapiens) (UniProt P14416)
# Chain of UniProt P14416 (P14416 whole entry, looked up): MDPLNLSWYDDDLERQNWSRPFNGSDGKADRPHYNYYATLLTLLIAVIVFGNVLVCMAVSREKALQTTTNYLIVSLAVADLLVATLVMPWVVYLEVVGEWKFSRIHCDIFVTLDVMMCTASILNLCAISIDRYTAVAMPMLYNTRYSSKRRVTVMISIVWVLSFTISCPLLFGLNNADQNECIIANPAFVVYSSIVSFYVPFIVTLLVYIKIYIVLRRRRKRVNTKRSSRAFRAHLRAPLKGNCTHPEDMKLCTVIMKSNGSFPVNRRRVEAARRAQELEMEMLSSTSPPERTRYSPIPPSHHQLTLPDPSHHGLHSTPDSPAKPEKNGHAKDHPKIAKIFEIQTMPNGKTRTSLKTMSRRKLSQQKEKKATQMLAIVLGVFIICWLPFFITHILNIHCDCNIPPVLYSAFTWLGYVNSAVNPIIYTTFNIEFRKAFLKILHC
# Test: HTS Assay for Allosteric Antagonists of the Human D2 Dopamine Receptor: Primary Screen for Antagonists; further: 0% is about no effect
# Conditions: HEK293 TREx D2 cells, calcium flux, dopamine EC80; at 10 µM; stronger effect = higher value
# How it was run: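 Overnight-induced (tetracycline, 30 C) HEK293 T-REx cells carrying force-coupled D2 receive a no-wash calcium dye, then compound, then EC80 dopamine at 180 s; signals are read kinetically throughout.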
row,SMILES,inhibition
1,COC(=O)CN1C(C(=O)c2ccccc2)=C(OC(=O)c2ccc(C)cc2)c2ccccc2S1(=O)=O,12.2%
2,Clc1cccc(CSc2ccc(-c3cccs3)nn2)c1,20.7%
3,O=C(c1cccn1-c1nnc(N2CCCCC2)s1)N1CCN(c2ccccc2)CC1,-6.19%
4,CCOC(=O)c1c(C)oc2ncnc(Nc3cc(Cl)ccc3OC)c12,-5.17%
5,Cc1ccc2nc(COc3ccccc3NC(=O)COc3ccccc3Cl)cc(=O)n2c1,-23.3%
6,CSc1ncc(C(=O)NCc2ccc(C)cc2)c(-c2ccccc2)n1,10.5%
7,Cc1ccc(CNC(=O)C2CCN(S(=O)(=O)c3c(C)noc3/C=C/c3c(C)cc(C)cc3C)CC2)cc1,18.4%
8,CCOc1cccc(NC(=O)C2CC(=O)N(C)C(=Nc3ccc(F)cc3)S2)c1 (stereo unspecified),26.9%
9,CCOc1ccccc1NC(=O)CN1C(=O)COc2ccc(S(=O)(=O)N3CCCCC3)cc21,9.26%
10,Cn1cc(C(c2ccccc2)c2ccc(Cl)s2)c2ccccc21 (stereo unspecified),2.38%
11,Cn1c(=O)c(NC2CCCCC2)c2c3c(cccc31)C(=O)c1ccccc1-2,active: 59.6%
12,CCOC(=O)c1ccc(NC(=O)Cn2ncc3c(C)n(Cc4ccccc4F)c(C)c3c2=O)cc1,-3.31%
13,COC(=O)c1ccc(NC(=O)Cn2c(=O)nc(-c3ccccc3)c3ccccc32)cc1,-23.7%
14,COc1cc2ccccc2cc1C(=O)Nc1ccc2oc(-c3ccc(Cl)cc3)nc2c1,3.01%
15,Cc1ccc2c(=O)cc(C(=O)Nc3c(C(=O)Nc4cccc(Cl)c4)oc4ccccc34)oc2c1,9.91%
16,O=C(Nc1ccc(C(=O)OCc2cc(=O)n3c4c(sc3n2)CCCC4)cc1)c1ccc(Cl)cc1,0.169%
17,CC(C)c1ccc(NC(=O)Nc2csc3c2CCCC3)cc1,15%
18,CCCCN(C)CC(O)Cn1cc(/C=C/C(=O)c2ccc(C)cc2)c2ccccc21 (stereo unspecified),7.27%
19,Cc1cc(C(=O)NCc2ccc(S(N)(=O)=O)cc2)c(C)o1,active: 30.5%
20,Cc1ccc(S(=O)(=O)C(CNC(=O)Cc2ccc(Cl)cc2)c2cccs2)cc1 (stereo unspecified),-2.8%
21,CCOc1ccc(CNC(=O)c2ccc3c(c2)nnn3C2CCCC2)cc1,-0.188%
22,CCc1ccccc1NC(=O)c1cc2nc(-c3ccc(OC)c(OC)c3)cc(C(F)(F)F)n2n1,12.8%
23,Cc1cccc(Cn2c(=O)n(Cc3ccc4c(c3)OCO4)c(=O)c3oc4ccccc4c32)c1,-7.78%
24,O=c1oc2c(CN3CCCC3)c(O)ccc2cc1-c1ccccc1,0.726%

row,SMILES,inhibition
1,CCOCCCNC(=O)c1c(NC(=O)c2cc(=O)c3ccccc3o2)sc2c1CCC2,2.73%
2,COc1ccccc1N1CCN(C(=O)Nc2cn(CC(C)C)c(=O)c3ccccc23)CC1,14.9%
3,CC(C)C(=O)Nc1cccc(C(=O)Nc2nnc(CC(C)(C)C)s2)c1,-3.01%
4,Cc1ccc(CCNC(=O)c2c(C)oc3nc(C)nc(N4CCOCC4)c23)cc1,-3.52%
5,CCN(CCCNC(=O)c1cc(Nc2ccc(OC)cc2OC)nc2ccccc12)c1cccc(C)c1,23%
6,Cn1cc(-c2cc3n(n2)CCC(=O)N3CC(=O)NCc2ccc(Cl)cc2)c2ccccc21,-0.309%
7,O=C(COc1ccccc1[N+](=O)[O-])N1CCC(c2nc3ccccc3o2)CC1,2.52%
8,Cc1c(CC(=O)NCCc2ccccc2F)c(=O)oc2cc(O)c(Cl)cc12,2.41%
9,Cc1ccc(-n2ncc3c(N(CC(C)C)CC(C)C)ncnc32)c(C)c1,-6.26%
10,Cc1ccc(NC(=O)c2c(C)oc3ccc(O)c(CN4CCCCCC4)c23)cc1,5.57%
11,CC(C)S(=O)(=O)c1oc(-c2cccs2)nc1S(=O)(=O)c1ccc(F)cc1,-9.44%
12,Nc1nonc1C(=O)NCCNCc1cccc(Cl)c1Cl,-3.16%
13,O=C1CC(c2cccc(O)c2)c2cc3c(cc2N1)OCO3 (stereo unspecified),17.4%
14,Cc1ccc(OCCn2c(-c3ccc(Br)cc3)nc3ccccc3c2=O)cc1C,-10.5%
15,COc1ccc(NC(=O)Cn2c(=O)n(Cc3ccccc3Cl)c(=O)c3cc(OC)c(OC)cc32)cc1OC,-0.32%
16,CCCCN(CC)CCCNC(=O)C1CCCN(c2ncnc3c2nc2n3CCCCC2)C1 (stereo unspecified),-2.57%
17,COc1ccc(-c2onc(C)c2C)cc1S(=O)(=O)N1CCN(c2ccc(Cl)cc2)CC1,7.5%
18,Cc1cccc(NC(=O)CCCN2C(=O)c3ccccc3C2=O)n1,active: 33.9%
19,O=C(CCN1CCN(c2ccccc2)CC1)Nc1ccccc1,active: 53.5%
20,CCc1ccc(-c2nc(CS(=O)CC(=O)NCCCN3CCC(C)CC3)c(C)o2)cc1 (stereo unspecified),active: 30.3%
21,CC(CNC(=O)C1CCN(S(=O)(=O)c2ccc3c(ccn3C)c2)CC1)c1ccccc1 (stereo unspecified),-19.2%
22,CC(C)OC(=O)c1c(NC(=O)COc2cccc(Br)c2)sc2c1CCCC2,-2.4%
23,O=C(CSc1nc2c([nH]c3ccccc32)c(=O)n1-c1ccccc1)N1CCOCC1,5.1%
24,Cc1ccc(-c2nnc(Nc3ccc(OCC(N)=O)cc3)c3ccccc23)cc1S(=O)(=O)N(C)C,-12.7%

row,SMILES,inhibition
1,O=C(C1CCN(S(=O)(=O)N2CCOCC2)CC1)N1CCc2ccccc21,active: 35.6%
2,CC(C)(C)c1ccc(C2=NC(C)(C)N(CC(=O)Nc3ccc(F)c(F)c3)C2=O)cc1,-3.3%
3,COc1ccc(S(=O)(=O)N2CCC3(CC2)CC(=O)c2ccccc2O3)cc1OC,active: 45.2%
4,N=c1sccn1CC(=O)NCCc1ccc(Cl)cc1Cl,active: 39%
5,COc1cccc2c1Oc1ncccc1N(C(=O)CCC(=O)NC(C)C)C2,4.49%
6,CCc1c(C)sc2c1CCN(C(=O)Nc1cc(Cl)c(OC)cc1OC)C2c1ccccc1 (stereo unspecified),-15.1%
7,CCC(=O)N1CCc2cc(CNS(=O)(=O)c3ccc(NC(=O)CC(C)C)cc3)ccc21,16.5%
8,CCC(=O)N1CCc2cc(Br)cc(S(=O)(=O)CCC(=O)Nc3ccc(C)c(F)c3)c21,-1.12%
9,O=S(=O)(NCC(c1cccnc1)N1CCN(Cc2ccccc2)CC1)c1cc(F)ccc1F (stereo unspecified),active: 43.2%
10,CCn1c(C)c(C)c2cc(C(=O)NCc3ccc(OC)cc3OC)ccc21,-2.42%
11,CCN(CC)S(=O)(=O)c1ccc(NC(=O)c2c(C)oc3ncnc(N4CCOCC4)c23)cc1,4.8%
12,CCOc1ccccc1NC(=O)c1c(NCc2cccs2)sc2c1CCCCC2,-2.89%
13,C=CCN1C(=O)/C(=C/c2ccc(OC(C)=O)c(OCC)c2[N+](=O)[O-])SC1=S,active: 30.3%
14,Cc1ccccc1NC1=NC(=S)N(CC(N)=O)C12CCOC(C)(C)C2 (stereo unspecified),active: 44.4%
15,CCOc1ccc(NC(=O)c2c(NC(=O)c3ccccc3F)sc3c2CCC3)cc1,-12.8%
16,CCOc1cc(/C=C(\C#N)C(=O)Nc2ccc(C)cc2)ccc1OCc1cc(=O)n2nc(CC)sc2n1,0.228%
17,Cc1ccc(NS(=O)(=O)c2ccc3c(c2)CCC(=O)N3)cc1,active: 64.5%
18,CC(=O)Nc1ccc(NC(=O)c2cc3sccc3n2Cc2ccc(Cl)cc2)cc1,18.6%
19,COc1cc(NC(=O)Cn2cnc3c2c(=O)n(C)c(=O)n3C)c(OC)cc1Cl,12.5%
20,CCOC(=O)c1c(NC(=O)/C(C#N)=C/c2ccccc2)sc2c1CCC2,7.99%
21,Cc1cc(C)cc(NC(=O)Nc2ccccc2OCc2cc(=O)n3ccccc3n2)c1,-22.4%
22,Cc1ccccc1CNC(=O)c1ccc(CSc2nc3cccnc3n2Cc2ccccc2)cc1,-1.72%
23,CCc1c(C)c2ccc(O)c(CN3CCN(c4ccc(OC)cc4)CC3)c2oc1=O,9.13%
24,CCc1ccc(-n2c(SCc3ccccc3C)nc3[nH]ncc3c2=O)cc1,1.06%

row,SMILES,inhibition
1,Cc1ccc(-c2nc(CS(=O)(=O)CC(=O)NCc3ccc(Cl)cc3)c(C)o2)cc1,10.9%
2,COC(=O)c1ccc(Cn2c(SCc3ccccc3)nc3ccncc32)cc1,17.7%
3,CCc1ccc(-n2nc(C)c3c(C(=O)Nc4cc(C)c(Cl)cc4OC)cc(C)nc32)cc1,-2.82%
4,CCCN(C(=O)COc1cc(=O)n(CC)c2ccccc12)c1ccc(C(C)C)cc1,-16.3%
5,CC(C)c1ccc(NC(=O)CCS(=O)(=O)c2cccc3nonc23)cc1,2.96%
6,CCc1ccc(-c2nn(CC(=O)NCc3ccccc3)c3c2cnc2ccc(C)cc23)cc1,4.91%
7,O=C(CN1CCSc2ccccc21)N1CCCCC1,-11.2%
8,Cc1ccc(CCNC(=O)c2ccc(CNS(=O)(=O)c3ccccc3)cc2)cc1,15.9%
9,Cc1ccc(CCNC(=O)c2cc(C)nc3c2c(C)nn3-c2ccc(C)cc2)cc1,-25.1%
10,O=C(Nc1ccc(C(F)(F)F)cc1)C1CCN(c2cnccn2)CC1,-6.21%
11,COc1cccc(Cn2c(SCC(=O)N(C)c3ccccc3)nc3ccccc32)c1,2.22%
12,COc1ccccc1N1CCN(CCc2n[nH]c(=S)n2-c2ccccc2)CC1,active: 51.6%
13,Cc1ccc(N/C(N)=N/c2nc(C)cc(N3CCCCC3)n2)c(C)c1,active: 35.3%
14,COc1cccc2cc(-c3csc(-c4ccc(Cl)cc4)n3)c(=O)oc12,-4.85%
15,CCOC(=O)Cn1c(=O)n(-c2ccccc2OC)c2nc(-c3ccccc3F)nc(C(N)=O)c21,3.4%
16,COc1ccc(CCNC(=O)c2nc(SCc3ccc(C)cc3)ncc2Cl)cc1OC,-0.305%
17,CCCNC(=O)c1cnc2sc(N3CCCCCC3)nn2c1=O,2.95%
18,CCOC(=O)c1c(NC(=O)c2cc3nc(-c4ccccc4)cc(C(F)(F)F)n3n2)sc2c1CCC(C)C2 (stereo unspecified),16.9%
19,Cc1cc(C(=O)Nc2cccc(F)c2)c2c(C)nn(-c3cccc(Cl)c3C)c2n1,-4.73%
20,CCOc1ccc(C(=O)Nc2ccccc2OCc2cc(=O)n3ccccc3n2)cc1,-6.37%
21,Cc1c(C(=O)N/N=C/c2ccoc2)cccc1[N+](=O)[O-],active: 67.4%
22,COc1ccc(Cc2nc3ccc(C(=O)NCCCN4CCN(C)CC4)cc3o2)cc1,23.9%
23,Cc1ccccc1-c1nc(SCC(=O)NCC2CCCO2)c2c(=O)n(C)c(=O)n(C)c2n1 (stereo unspecified),-5.15%
24,COc1ccc(N2CCN(C(=O)c3sc4nc5n(c(=O)c4c3C)CCC5)CC2)cc1,-9.55%
